Results as given in PubChem BioAssay AID485294 (National Center for Advancing Translational Sciences (NCATS), 2010).
Hit rate of the full screen: of about 370,000 compounds, about 150 (0.041%) were called active. The inconclusive results got no clear call from the source; some entries with a clear call stand among them for comparison. Calls come from the whole dose curve; as a rule, active = well fitted inhibition curve with a large enough effect; inconclusive = small, poorly fitted or top-dose-only effect; inactive = flat fitted curve, though single readings scatter. No potency is given beside an inconclusive call; the fits are too rough.

target: Beta-lactamase (Escherichia coli (strain K12)) (UniProt P00811); test: qHTS Inhibitors of AmpC Beta-Lactamase (assay with detergent); details: AmpC hydrolysis of nitrocefin, absorbance 480 nm, 0.01% Triton; activity change, negative = inhibition: at 114 µM (top of the series); note: nearly all actives have a fitted effect of over 25% in size;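 for activity change, negative = inhibition: 0% = no-compound wells and -100% = no-enzyme wells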
Method in brief: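 AmpC (5.3 nM in the dispensed reagent) in 20 mM phosphate pH 7.0 with 0.01% (detergent screen) or 0.0001% Triton X-100 was preincubated with compounds for 15 min at room temperature. Nitrocefin was then added from an 800 uM solution, and hydrolysis was followed at 480 nm.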
Potency is the fitted concentration of half-maximal effect; tags give direction and shape of the fitted curve.

Sequence of UniProt P00811 (P00811 whole entry, looked up): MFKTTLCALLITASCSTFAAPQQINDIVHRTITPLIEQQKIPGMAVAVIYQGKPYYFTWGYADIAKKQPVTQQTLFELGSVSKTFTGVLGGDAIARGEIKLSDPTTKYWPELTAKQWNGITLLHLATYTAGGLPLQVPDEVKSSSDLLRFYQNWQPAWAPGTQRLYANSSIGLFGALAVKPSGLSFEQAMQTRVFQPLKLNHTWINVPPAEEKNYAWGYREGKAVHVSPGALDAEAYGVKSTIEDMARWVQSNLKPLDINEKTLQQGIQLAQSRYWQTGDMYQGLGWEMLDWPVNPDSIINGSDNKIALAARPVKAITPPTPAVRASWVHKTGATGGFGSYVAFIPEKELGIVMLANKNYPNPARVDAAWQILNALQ

**Q.** For `COc1cccc(OCC(O)CN2CCN(C)CC2)c1` (centres undefined), which Potency is on record?
**A.** inconclusive [inhibitor, partial curve, poor fit]

**Q.** With `Cn1c(=O)c2c(SCC(=O)NCc3ccco3)nc(-c3ccccc3F)nc2n(C)c1=O` as the molecule, how does the “activity change, negative = inhibition” value read?
**A.** inactive: 16.3%

**Q.** For `O=C(CN1CCOCC1)N/N=C/c1ccc(C(=O)O)cc1`, which “activity change, negative = inhibition” value is on record?
**A.** inactive: 0.944%

**Q.** With `COCCn1c(SCCCc2ccccc2)nc2c1c(=O)[nH]c(=O)n2C` as the molecule, how does the Potency read?
**A.** inconclusive [inhibitor, full curve]

**Q.** How did the “activity change, negative = inhibition” value turn out when `Cc1ccc(-c2[nH]nc3c2C(c2ccccc2OC(=O)N2CCOCC2)C(C#N)=C(N)O3)cc1` (centres undefined) was run?
**A.** inactive: 2.66%

**Q.** For `COc1cc(C(=O)ON=C2C3CC4CC(C3)CC2C4)cc(OC)c1OC`, which “activity change, negative = inhibition” value is on record?
**A.** inactive: -4.85%

**Q.** With `NC(=O)c1oc2ccccc2c1NC(=O)C1CC(=O)N(c2ccccc2)C1` (centres undefined) as the molecule, how does the Potency read?
**A.** inconclusive [inhibitor, full curve, poor fit]

**Q.** Which Potency does the source give for `COc1ccccc1NC(=O)CCCNC(=O)Cn1cnc2sc(C)c(C)c2c1=O` here?
**A.** inconclusive [inhibitor, partial curve, poor fit]

**Q.** How did the “activity change, negative = inhibition” value turn out when `CCN(CC)CCC#CC(O)(c1ccccc1)c1ccccc1` was run?
**A.** inactive: -7.68%

**Q.** For `Cc1ccccc1Nc1nc(N)nc(CSc2nc3ccccc3s2)n1`, which Potency is on record?
**A.** inconclusive [inhibitor, partial curve, poor fit]

**Q.** `CCCC1(CCC)C(=O)NC(=NCCc2ccc(OC)c(OC)c2)NC1=O` was tested. Which “activity change, negative = inhibition” value did it give?
**A.** inactive: -4.58%

**Q.** Which “activity change, negative = inhibition” value does the source give for `CCC(=O)N1CCCc2cc(S(=O)(=O)CCC(=O)Nc3ccccc3C)ccc21` here?
**A.** inactive: -3.86%

**Q.** With `CCOc1ccc(NC(=O)CN(C)C(=O)c2cccnc2Sc2ccccc2Cl)cc1OCC` as the molecule, how does the “activity change, negative = inhibition” value read?
**A.** inactive: 0%

**Q.** With `CC(=O)c1cccc(NC(=O)CSc2ccc(-c3ccc4c(c3)OCO4)nn2)c1` as the molecule, how does the Potency read?
**A.** inconclusive [inhibitor, full curve, poor fit]

**Q.** `CCCCNc1nc2c(c(=O)n(C)c(=O)n2C)n1Cc1cccc(OC)c1` was tested. Which Potency did it give?
**A.** inconclusive [inhibitor, partial curve, poor fit]

**Q.** For `COc1ccc(N2CCN(C(=O)CN(Cc3ccc(Cl)cc3)S(C)(=O)=O)CC2)cc1`, which Potency is on record?
**A.** inconclusive [inhibitor, full curve]

**Q.** For `COc1cc(C2Nc3ccccc3C(=O)N2c2ccccc2OC)ccc1O` (centres undefined), which “activity change, negative = inhibition” value is on record?
**A.** inactive: -11.6%

**Q.** With `CCOC(=O)c1[nH]c(C)c(CCC(=O)O)c1C` as the molecule, how does the Potency read?
**A.** inactive

**Q.** `COC(=O)c1nc2ccccc2s1` was tested. Which Potency did it give?
**A.** inconclusive [inhibitor, partial curve, poor fit]

**Q.** `Oc1c(Cl)cc(Cl)cc1/C=N/NC(=S)NC1CC2C=CC1C2` (centres undefined) was tested. Which “activity change, negative = inhibition” value did it give?
**A.** inactive: -1.18%

**Q.** Which Potency does the source give for `Cc1ccc(C(=O)OCc2nc3ccccc3s2)o1` here?
**A.** inconclusive [inhibitor, full curve, poor fit]

**Q.** For `COC(=O)C1CCN(C(=O)COC(=O)CC(NC(N)=O)c2ccc(Cl)cc2)CC1` (centres undefined), which “activity change, negative = inhibition” value is on record?
**A.** inactive: 2.66%

**Q.** `NC(=O)C(=O)N/N=C1\CCc2ccccc21` was tested. Which “activity change, negative = inhibition” value did it give?
**A.** inactive: -10.8%

**Q.** With `O=C(Nc1cccc(F)c1)Nc1ccc2c(c1)OCO2` as the molecule, how does the Potency read?
**A.** inconclusive [inhibitor, full curve, poor fit]

**Q.** `CCCCNC(=O)C1CC(c2cccc(F)c2)=NO1` (centres undefined) was tested. Which “activity change, negative = inhibition” value did it give?
**A.** inactive: -9.44%

**Q.** How did the Potency turn out when `O=C(CN(Cc1ccccc1)C(=O)CCC(=O)Nc1nccs1)NCc1ccccc1` was run?
**A.** inconclusive [inhibitor, full curve, poor fit]

**Q.** `O=C(NC(=S)Nc1cccnc1Cl)c1ccco1` was tested. Which Potency did it give?
**A.** inconclusive [inhibitor, full curve, poor fit]

**Q.** `Cc1ccnc(N2CCC(C(=O)Nc3cccc(C(F)(F)F)c3)CC2)n1` was tested. Which Potency did it give?
**A.** inconclusive [inhibitor, full curve, poor fit]

**Q.** Which Potency does the source give for `O=C(CCc1ccccc1)NCC(c1ccco1)N1CCc2ccccc21` (centres undefined) here?
**A.** inconclusive [inhibitor, full curve, poor fit]

**Q.** For `COC(=O)c1c(C(=O)OC)c(-c2ccc(Cl)c(Cl)c2)n2c1CCC2`, which Potency is on record?
**A.** inconclusive [inhibitor, full curve, poor fit]

**Q.** For `O=C1CC(N2CCOCC2)C(=O)N1CCN1C(=O)CC(N2CCOCC2)C1=O` (centres undefined), which “activity change, negative = inhibition” value is on record?
**A.** inactive: -10.8%

**Q.** With `CC(Sc1nnc(N)s1)C(=O)NC1CCCCC1C` (centres undefined) as the molecule, how does the Potency read?
**A.** inconclusive [inhibitor, full curve, poor fit]

**Q.** With `COCCN(CCOC)S(=O)(=O)c1ccc(C(=O)Nc2nnc(COC)o2)cc1` as the molecule, how does the Potency read?
**A.** inconclusive [inhibitor, full curve, poor fit]

**Q.** With `CCN1CCN(C(=O)c2cc(-c3cccnc3)nc3ccc(Br)cc23)CC1` as the molecule, how does the Potency read?
**A.** inconclusive [inhibitor, full curve, poor fit]

**Q.** `CC(C)(C)NC(=O)CSc1nnc(NC(=O)CCn2cnc3ccccc3c2=O)s1` was tested. Which Potency did it give?
**A.** inconclusive [inhibitor, partial curve]

**Q.** Which Potency does the source give for `O=C1C(Cl)=C(NC(=O)c2ccccc2)C(=O)C(Cl)=C1NC(=O)c1ccccc1` here?
**A.** inconclusive [inhibitor, partial curve]

**Q.** Which Potency does the source give for `CCOC(=O)C1CCN(C(=O)COC(=O)c2cc([N+](=O)[O-])ccc2N2CCOCC2)CC1` here?
**A.** inconclusive [inhibitor, full curve, poor fit]

**Q.** For `O=C(CN1C(=O)c2ccccc2S1(=O)=O)NCc1c(F)cccc1F`, which Potency is on record?
**A.** inconclusive [inhibitor, full curve, poor fit]

**Q.** With `Cc1cc(CN2CCCC(C(=O)Nc3cccc(-n4cccn4)c3)C2)cc(C)c1O` (centres undefined) as the molecule, how does the Potency read?
**A.** inconclusive [inhibitor, full curve]

**Q.** `CC(=O)c1ccc(N2CCN(c3ccc(S(=O)(=O)NCCCN(C)C)cc3[N+](=O)[O-])CC2)cc1` was tested. Which Potency did it give?
**A.** inconclusive [inhibitor, partial curve]

**Q.** With `COc1ccc(NC(=O)C2CCN(S(=O)(=O)c3c(C)noc3/C=C/c3ccco3)CC2)cc1` as the molecule, how does the “activity change, negative = inhibition” value read?
**A.** inactive: 2.79%

**Q.** With `CCOC(=O)CNC(=S)N(CCCN1CCN(C)CC1)Cc1cccs1` as the molecule, how does the Potency read?
**A.** inconclusive [inhibitor, full curve]

**Q.** With `CCOC(=O)C1=C(C)NC(=O)NC1c1ccc(N(C)C)cc1` (centres undefined) as the molecule, how does the Potency read?
**A.** inconclusive [inhibitor, full curve]

**Q.** For `N#CSCC(=O)N1c2ccccc2CCc2ccccc21`, which Potency is on record?
**A.** inconclusive [inhibitor, full curve, poor fit]

**Q.** `COC(=O)C1=C(C)Nc2nnnn2C1c1ccc(Cl)cc1Cl` (centres undefined) was tested. Which “activity change, negative = inhibition” value did it give?
**A.** inactive: 0.167%

**Q.** Which Potency does the source give for `CCOc1c(/C=C(\C#N)C(N)=O)c2ccccc2n1CC` here?
**A.** inconclusive [inhibitor, full curve]

**Q.** With `COC(=O)c1ccc(CSc2nnc(-c3ccncc3)o2)o1` as the molecule, how does the Potency read?
**A.** inconclusive [inhibitor, partial curve, poor fit]

**Q.** How did the Potency turn out when `COc1cc(NS(=O)(=O)c2ccc(Cl)cc2)c(C(=O)O)cc1OC` was run?
**A.** inconclusive [inhibitor, partial curve, poor fit]

**Q.** How did the “activity change, negative = inhibition” value turn out when `C(=N\N1CCN(Cc2ccccc2)CC1)/c1cccnc1` was run?
**A.** inactive: -6.81%

**Q.** With `CNc1nnc(CSc2nc3ccccc3s2)s1` as the molecule, how does the “activity change, negative = inhibition” value read?
**A.** inactive: -3.29%

**Q.** `CCC(=O)c1ccc(OCC(=O)N(CC)CC(=O)Nc2ccccc2OC)cc1` was tested. Which Potency did it give?
**A.** inconclusive [inhibitor, full curve, poor fit]

**Q.** With `CCn1c(C)nc2cc(C(=O)NNC(=S)Nc3ccccc3OC)ccc21` as the molecule, how does the “activity change, negative = inhibition” value read?
**A.** inactive: 0.481%

**Q.** Which “activity change, negative = inhibition” value does the source give for `O=C(c1ccccc1)c1nnc(-c2ccccc2F)o1` here?
**A.** inactive: -4.61%

**Q.** For `CCN(CC(=O)NC(=O)Nc1ccccc1F)Cc1ccccc1`, which Potency is on record?
**A.** inconclusive [inhibitor, partial curve, poor fit]

**Q.** Which Potency does the source give for `O=C(NC1CCCC1)C(c1ccccc1)N(C(=O)c1ccco1)C1CCCC1` (centres undefined) here?
**A.** inconclusive [inhibitor, partial curve]

**Q.** `CCOC(=O)c1[nH]ncc1CN1CCc2ccc(NC(=O)C3CCCO3)cc2C1` (centres undefined) was tested. Which Potency did it give?
**A.** inconclusive [inhibitor, full curve, poor fit]

**Q.** How did the “activity change, negative = inhibition” value turn out when `Cc1ccc(S(=O)(=O)[N-]c2nc3ccccc3nc2-n2cc[n+](CCC(C)C)c2)cc1` was run?
**A.** inactive: 3.24%

**Q.** With `Cc1cccc(-c2csc(NC(=O)c3cnccn3)c2C(=O)OC(C)C)c1` as the molecule, how does the Potency read?
**A.** inconclusive [inhibitor, single point]

**Q.** For `CCCc1cc(=O)[nH]c(SCc2ccccc2Cl)n1`, which Potency is on record?
**A.** inconclusive [inhibitor, full curve]

**Q.** For `O=C(NCC1COc2ccccc2O1)C1C2C=CC3(CN(Cc4cccs4)C(=O)C13)O2` (centres undefined), which Potency is on record?
**A.** inconclusive [inhibitor, partial curve]

**Q.** For `Cc1ccc(S(=O)(=O)NCc2cccnc2)cc1`, which Potency is on record?
**A.** inconclusive [inhibitor, full curve, poor fit]

**Q.** `CC(C)C(=O)Nc1ccc2c(c1)oc1ccccc12` was tested. Which Potency did it give?
**A.** inconclusive [inhibitor, partial curve, poor fit]

**Q.** `O=C(O)c1ccc2c(c1)C(=O)N([C@H](Cc1ccc(O)c(O)c1)C(=O)O)C2=O` was tested. Which Potency did it give?
**A.** inconclusive [inhibitor, full curve, poor fit]

**Q.** `CCOC(=O)N1CCN(Cc2ccc3ccccc3c2)CC1` was tested. Which Potency did it give?
**A.** inconclusive [inhibitor, full curve, poor fit]

**Q.** With `O=C(NCc1ccco1)c1ccc2c(c1)N(Cc1ccc(F)cc1)C(=O)c1ccccc1S2=O` (centres undefined) as the molecule, how does the “activity change, negative = inhibition” value read?
**A.** inactive: -7.04%

**Q.** With `COc1ccc(OC)c(CNc2nc3ccccc3n2CCN2CCCCC2)c1` as the molecule, how does the “activity change, negative = inhibition” value read?
**A.** inactive: 3.83%

**Q.** With `Cc1cccc(NC(=O)COc2ccc(/C=N\n3cnnc3)cc2)c1` as the molecule, how does the Potency read?
**A.** inconclusive [inhibitor, partial curve, poor fit]

**Q.** Which Potency does the source give for `COC(=O)c1cc(Cl)cc2c(C)c(C3(O)CCCCC3)[nH]c12` here?
**A.** inconclusive [inhibitor, partial curve]

**Q.** `COc1ccc(Nc2nc(-c3cccs3)cs2)c(OC)c1` was tested. Which Potency did it give?
**A.** inconclusive [inhibitor, full curve, poor fit]
